From US12296017B2, “Bioorthogonal compositions” (TAMBO, INC., priority 2017, dated 2025)
Where two headings read alike, the source gives them in different places.

How the values were obtained:
[1] = tested on: luminescent methicillin resistant Staphylococcus aureus (MRSA); conditions: Cy5-modified alginate TAG, 69 μmole/kg IV, mice; for luminescent bacteria by IVIS in vivo imaging: within 24 hours
[2] = tested on: collagen-induced arthritis; assay: Collagen-induced arthritis model in Lewis rats (prophetic); type: in vivo; conditions: expected result, combination with TAG
[3] = Acute 7-day MTD study in Sprague-Dawley rats (prophetic); type: in vivo; conditions: expected result, intravenous
Description: An acute (single-dose) 7-Day Up or down maximum tolerable dose (MTD) study can be performed in Sprague-Dawley Rats for 3 rounds for TCO-PLX3397 and PLX3397 administered intravenously. Results from this study will help inform dosage levels for subsequent single-dose and repeat-dose studies based on tolerability. Initial dosage is based on the previously examined intravenous concentration of PLX3397 of 1 mg/kg. This study is envisioned to employ 3 groups of 3 male and 3 female rats for each compound (36 animals total). […] Based on the reported side effects of PLX3397, rats may also be monitored for fatigue and diarrhea and blood draws (200 μL) performed daily to screen for anemia, hyponatremia, and neutropenia. After 7 days, animals may be sacrificed and gross tissue histology to assay for tissue damage and inflammation. At the end of 3 rounds, the highest dose with no overt toxicities is deemed the MTD. The number of animals to be used in each group is consistent with standard protocols for toxicokinetic profiling in rats.

[4] = tested on: local spontaneous adenocarcinoma; type: in vivo; conditions: canine
Description: […]. A tumor-bearing dog was given multiple treatments of Doxorubicin and Shasqi Tx (gel and doxorubicin pro-drug). […] Longest tumor diameter determined by CT scans.
The safety profile for tetrazine-modified gel injected locally, followed by TCO-doxorubicin pro-drug injected intravenously translates across species, including large animals.

With CN[C@H](CC(C)C)C(=O)N[C@H]1C(=O)N[C@@H](CC(N)=O)C(=O)N[C@H]2C(=O)N[C@H]3C(=O)N[C@H](C(=O)N[C@H](C(=O)O)c4cc(O)cc(O)c4-c4cc3ccc4O)[C@H](O)c3ccc(c(Cl)c3)Oc3cc2cc(c3O[C@@H]2O[C@H](CO)[C@@H](O)[C@H](O)[C@H]2O[C@H]2C[C@](C)(NC(=O)OC3/C=C/CCCCC3)[C@H](O)[C@H](C)O2)Oc2ccc(cc2Cl)[C@H]1O (stereo partly shown) [Vanco-R-TCO] the “bacterial load by culture of excised thigh muscle” value ([1]; 24 hours post-inoculation, listed as TCO-vanco) was “reduce bacterial load greater than the control” and the “luminescent bacteria by IVIS in vivo imaging” value ([1]; listed as TCO-vanco) was “eliminate luminescent bacteria within 24 h”.

In the case of O=C(OC1/C=C/CCCCC1)n1cc(Cc2ccc(NCc3ccc(C(F)(F)F)nc3)nc2)c2cc(Cl)cnc21 (stereo not shown) [Example 8, TCO-pexidartinib], the “arthritic symptoms (disease score and histology)” value [2] is reported as “dramatic reduction of arthritic symptoms” and the “side effects and MTD versus PLX3397” value [3] is reported as “reduced side effects and a much higher MTD”.

In the case of COc1cccc2c1C(=O)c1c(O)c3c(c(O)c1C2=O)CC(O)(C(=O)CO)CC3OC1CC(NC(=O)OC2C=CCCCCC2)C(O)C(C)O1 (stereo not shown) [TCO-doxorubicin], the body weight change [4] is reported as “gain in body weight”, the “cardiotoxicity by serial echocardiogram” value ([4]; despite nearly 12-fold the lifetime MTD) is reported as “did not reveal any signs of cardiotoxicity” and the tumor response ([4]; longest tumor diameter by CT scans) is reported as “reduction in tumor size followed by stable disease”. For the same compound, the side effects ([4]; multiple cycles with tetrazine-modified gel) was “no major side effects” and the “cumulative dose given relative to maximum lifetime dose (MTD) of Dox without major side effects” value ([4]; listed as TCO-Dox pro-drug) was about 12 fold.

For CN[C@H](CC(C)C)C(=O)N[C@H]1C(=O)N[C@@H](CC(N)=O)C(=O)N[C@H]2C(=O)N[C@H]3C(=O)N[C@H](C(=O)N[C@H](C(=O)O)c4cc(O)cc(O)c4-c4cc3ccc4O)[C@H](O)c3ccc(c(Cl)c3)Oc3cc2cc(c3O[C@@H]2O[C@H](CO)[C@@H](O)[C@H](O)[C@H]2O[C@H]2C[C@](C)(N)[C@H](O)[C@H](C)O2)Oc2ccc(cc2Cl)[C@H]1O [vancomycin, reference compound], the “luminescent bacteria by IVIS in vivo imaging” value ([1]; listed as vanco) was “eliminate luminescent bacteria within 24 h”.
